# Source: PMC6919601, “Identification of Plasmodium dipeptidyl aminopeptidase allosteric inhibitors by high throughput screening” (PLoS ONE, 2019)
# Out of some 110,000 compounds screened, about 230 (0.21%) showed an effect of 50% or more. Some of the results follow.
# Biological target: DPAP1 (Plasmodium falciparum, UniProt Q8IIJ9)
# Assay: primary screen, percent inhibition; read by cleavage of a fluorogenic dipeptide substrate; higher = more effect of the substance
# Design: species or system P. falciparum D10 trophozoite lysates; single well
# 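Also: 30 min substrate incubation versus DMSO and 10 µM JCP410 controls.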
# DPAP1, sequence (Q8IIJ9 whole entry, looked up): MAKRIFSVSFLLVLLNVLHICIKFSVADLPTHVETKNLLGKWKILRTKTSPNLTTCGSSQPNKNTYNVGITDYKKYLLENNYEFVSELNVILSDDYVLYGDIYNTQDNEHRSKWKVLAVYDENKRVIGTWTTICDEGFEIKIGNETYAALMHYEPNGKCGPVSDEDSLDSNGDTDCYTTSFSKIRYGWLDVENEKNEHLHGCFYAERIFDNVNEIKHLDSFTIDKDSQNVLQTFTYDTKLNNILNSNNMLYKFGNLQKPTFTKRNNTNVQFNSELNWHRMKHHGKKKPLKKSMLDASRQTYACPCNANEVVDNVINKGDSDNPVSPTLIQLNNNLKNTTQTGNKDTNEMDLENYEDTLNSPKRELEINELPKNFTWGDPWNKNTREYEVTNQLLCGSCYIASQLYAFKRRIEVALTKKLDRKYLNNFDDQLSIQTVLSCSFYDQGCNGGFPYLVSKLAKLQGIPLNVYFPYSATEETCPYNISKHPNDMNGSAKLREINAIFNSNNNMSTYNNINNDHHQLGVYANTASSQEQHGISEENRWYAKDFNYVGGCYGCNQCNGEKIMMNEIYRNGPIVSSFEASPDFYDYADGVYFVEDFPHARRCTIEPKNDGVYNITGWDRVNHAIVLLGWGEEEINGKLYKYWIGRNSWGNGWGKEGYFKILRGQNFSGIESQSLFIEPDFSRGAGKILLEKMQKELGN
row,SMILES,% Inhibition @ 10 uM
1,Cn1cc(C2C(=O)NC(c3ccccc3)=NN2C(=O)c2ccccc2)c2ccccc21 (stereo not shown),1.15%
2,O=C(Cn1ncc2c(=O)oc3ccccc3c21)N1CCCN(Cc2ccccc2F)C1,-2.38%
3,O=C1CC(C(=O)NCC2OCCc3ccccc32)C2(CCCCC2)O1 (stereo not shown),-2.14%
4,CC(C)(C)NCC(O)COc1ccc2ccccc2c1 (stereo not shown),-0.424%
5,C=CCOc1ccccc1CN1CCCCC1C(=O)OCC (stereo not shown),-4.75%
6,Cc1ccc(-n2nnc3c(=O)n(CC(=O)NCC4CCCO4)cnc32)cc1 (stereo not shown),1.24%
7,CCOC(=O)C1=C(N)N2C(=O)C(C)SC2=C(C(=O)OC)C1c1ccccc1OC (stereo not shown),-0.703%
8,C1=CC2CC1CC2CN1CCN(c2ccccc2)CC1 (stereo not shown),3.24%
9,Cc1ccc(S(=O)(=O)/N=C(\NCC(=O)O)c2ccccc2)cc1,1.25%
10,N#CC1=C(N)SC(N)=C(C#N)C1c1cccc2ccccc12,47%
11,Cc1cccc(NC(=O)c2cccc(S(=O)(=O)Nc3ccccc3C(=O)O)c2)c1,6.31%
12,CCN1C(=O)N/C(=C/c2cc(C)n(-c3ccc(C)cn3)c2C)C1=O,-10.1%
13,Cc1nn(CCCC(=O)NCCc2ccc(Cl)cc2)c(=O)c2cc3sccc3n12,1.8%
14,COC(=O)c1nnn(-c2ccccc2F)c1N,-0.92%
15,OCCOCCN1CCN(CC2CCCCC2)CC1,-0.292%
16,Cc1ccc(N(CC(=O)N2CCCC2)S(C)(=O)=O)cc1,-3.39%
17,Cc1ccc(C)c(S(=O)(=O)NC(C)C(=O)Nc2ccc(F)c(Cl)c2)c1 (stereo not shown),-2.76%
18,COc1ccc(-c2cc(C(=O)NCCCn3ccnc3)no2)cc1,-4.07%
19,O=C(O)c1cccc(NC(=O)c2cc([N+](=O)[O-])cc([N+](=O)[O-])c2)c1,-0.0404%
20,N#CC1=C(N)Oc2cc(N)ccc2C1c1ccc2ccccc2c1 (stereo not shown),-1.38%
21,c1ccc2sc(-c3ccc4c(c3)OCO4)nc2c1,-0.546%
22,C=CCN1C(=O)S/C(=C/c2ccc(-c3ccc(C(C)=O)cc3)o2)C1=O,-4.62%
23,CCN1CCC2(CC1)N=C(c1ccc(F)cc1)C(=S)N2,-2.67%
24,CC1=C(c2ccc(Cl)cc2)NN=C(/N=C/c2ccco2)S1,-2.41%
25,COc1ccc(S(=O)(=O)N(C)CC(=O)Nc2ccc(F)cc2)cc1,-2.6%

row,SMILES,% Inhibition @ 10 uM
1,O=C(NCCc1ccc(Cl)cc1)c1cc(S(=O)(=O)N2CCCCC2)ccc1F,3.04%
2,C=CCn1c(=N)n(CC(O)c2ccc(Br)cc2)c2ccccc21 (stereo not shown),-8.73%
3,COc1cccc2oc(-c3ccccc3)c(Br)c12,-11.3%
4,Cc1ccc(-c2ccc(=O)n(Cc3c(F)cccc3Cl)n2)cc1,-0.946%
5,CC(=O)c1ccc(N2CN=C3SCC(=O)N3C2)cc1,2.08%
6,Oc1nc(Cn2c(-c3cncs3)nc3ccccc32)nc2ccccc12,2.25%
7,Cc1cccn2c(=O)c(/C=C(\C#N)C(=O)NCC3CCCO3)c(Oc3ccc(C(C)(C)C)cc3)nc12 (stereo not shown),0.315%
8,COC(=O)c1cc2sc(Cl)cc2n1Cc1nc(-c2ccc(OC)c(OC)c2)oc1C,-1.2%
9,CCC[C@H](NC(=O)C1(NC(=O)c2ccc(OC)c(OC)c2)CCCCC1)C(=O)c1nc2ccccc2o1,-1.41%
10,CC(C)COc1ccc(/C=C2/NC(=O)N(Cc3ccccc3F)C2=O)cc1,-5.57%
11,CCc1ccc(OCC(=O)N2CCN(Cc3ccc4c(c3)OCO4)CC2)c(Br)c1,-1.16%
12,ON=C1CCN(Cc2ccccc2)CC1,2.62%
13,COCCn1c(=N)c(C(=O)NC2CCCCC2)cc2c(=O)n3cc(C)ccc3nc21,1.97%
14,O=C(Nc1ccccc1[N+](=O)[O-])C1CC1(c1ccccc1)c1ccccc1 (stereo not shown),4.8%
15,Clc1ccc(-c2csc(N3N=C(c4ccccc4)CC3c3ccccc3)n2)cc1 (stereo not shown),-4.08%
16,COc1ccc(N(CC(=O)Nc2ccc(C)cc2C)S(=O)(=O)c2ccccc2)cc1,0.324%
17,COc1ccc(CC/N=C2/C=C(O)CC(C)(C)C2)cc1OC,-9.75%
18,O=c1[nH]c(/C=C/c2ccccc2O)c([N+](=O)[O-])c(=O)[nH]1,3.83%
19,CCOCCCNC(=O)C1CCCN(C(=O)c2cc3sccc3n2CC)C1 (stereo not shown),-8.38%
20,Cc1ccc(N2CCN(S(=O)(=O)N(C)C)CC2)c(C)c1,-6.62%
21,Cc1nn(CC(=O)N2CCC3(CC2)OCCO3)c(=O)c2cc3sccc3n12,6.46%
22,Cc1ccc(OCC(=O)Nc2cccc3c2CCCC3)c(Br)c1,5.35%
23,CCCCCCOc1ccc(CN2CCc3ccccc3C2)cc1,0.472%
24,Cc1nn(CCC(=O)NCC(C)c2ccccc2)c(=O)c2nn(-c3ccccc3)c(C)c12 (stereo not shown),1.8%
